# Measurements taken from the antibiotic and cytotoxicity screens of Wong et al. (2023).
# Some of the results follow.
# What was measured:
# HSkMC = human skeletal muscle cells; assay: cytotoxicity call (relative viability < 0.9); conditions: 10 µM
# HepG2 = assay: cytotoxicity call (relative viability < 0.9); conditions: 10 µM
# S. aureus RN4220 = assay: growth inhibition call (relative growth <= 0.2); conditions: 50 µM
SMILES,cytotoxicity call (HSkMC),cytotoxicity call (HepG2),growth inhibition call (S. aureus RN4220)
COc1ccc(NC(=O)Nc2ccc3c(c2)CC(=O)N([C@H](C)CO)C[C@H](C)[C@@H](CN(C)S(=O)(=O)c2cn(C)cn2)O3)cc1,inactive,inactive,inactive
Cc1noc(C)c1S(=O)(=O)Nc1ccc2c(c1)C(=O)N([C@@H](C)CO)C[C@H](C)[C@H](CN(C)Cc1ccncc1)O2,inactive,inactive,inactive
CSC[C@@H](O)Cn1[nH]c(=O)ccc1=O,inactive,inactive,inactive
C[C@@H]1CN([C@H](C)CO)C(=O)c2cc(NC(=O)c3ccccc3)ccc2O[C@@H](C)CCCCO[C@@H]1CN(C)Cc1ccccc1,inactive,inactive,inactive
O=C(C[C@@H]1C[C@H]2c3cc(NS(=O)(=O)c4ccc(F)cc4)ccc3O[C@H]2[C@@H](CO)O1)NC1CCCCC1,inactive,inactive,inactive
Nc1cccn2ncnc12,inactive,inactive,inactive
COc1cccc(S(=O)(=O)N2C[C@H](O)COC[C@H]3O[C@@H](CC(=O)N4CCN(c5ccccc5)CC4)CC[C@@H]32)c1,inactive,inactive,inactive
CC(C)NC(=O)Nc1ccc2c(c1)C(=O)N([C@@H](C)CO)C[C@@H](C)[C@H](CN(C)Cc1ccc(Oc3ccccc3)cc1)O2,inactive,inactive,inactive
COc1cc(O)c2c(=O)c(O)c(-c3ccc(O)c(O)c3)oc2c1,inactive,inactive,inactive
COc1ccc(S(=O)(=O)N(C)C[C@H]2OCCCC[C@@H](C)Oc3ccc(NC(=O)Nc4ccc(F)cc4)cc3C(=O)N([C@H](C)CO)C[C@@H]2C)cc1,inactive,active,inactive
